Measured values reported in paper PMC12820563, “FoxP3 forms a head-to-head dimer in vivo and stabilizes its multimerization on adjacent microsatellites”.
This is one part of the list.

The sequences below were run against T1, MBP-FoxP1dN (Mus musculus, UniProt P58462 326-579) (assay: PD-seq (MBP pull-down with sequencing); 20 mM Tris-HCl pH 7.5, 100 mM NaCl, 1.5 mM MgCl2, 0.4 uM protein, 0.1 uM dsDNA library, 30 min, room temperature, amylose pull-down; high values mean tight binding). Settings: protein: recombinant; tags: His6-MBP; chain copies: 2; dsDNA, one strand shown.
T1 sequence: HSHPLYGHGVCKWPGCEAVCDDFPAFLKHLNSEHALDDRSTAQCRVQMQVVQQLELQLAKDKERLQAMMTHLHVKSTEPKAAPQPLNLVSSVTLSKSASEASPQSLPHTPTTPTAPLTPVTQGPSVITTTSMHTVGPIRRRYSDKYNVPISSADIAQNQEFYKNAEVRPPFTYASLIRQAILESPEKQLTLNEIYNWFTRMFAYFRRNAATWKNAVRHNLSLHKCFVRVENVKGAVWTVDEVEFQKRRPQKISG
Outline: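 Protein and DNA were mixed at 0.4 µM and 0.1 µM and held for 30 min at room temperature in Tris pH 7.5 buffer with NaCl and MgCl2; the protein was a His6-MBP-tagged, N-terminally truncated mouse FoxP3 or FoxP1 fragment from E. coli, and the DNA a Klenow-filled double-stranded degenerate library. Amylose resin captured the complexes, which were washed three times. Binding is read as reads-per-million enrichment of pull-down versus input after Illumina sequencing, with replicates pooled.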

| Sequence | binding signal |
| --- | --- |
| GATGATTGTTCTCCCAGCTGATGAATTTGTCACCTCGAGTAAACAAATTTTCCTAATCTTTCTGTTCAAGCGCCATCTAC | 1.02 RPM ratio (pull-down/input) |
| GATGATTGTTCTCCCAGCTGATGAATTGAATGATTCGAGTAAACAAATTTTCCTAATCTTTCTGTTCAAGCGCCATCTAC | 0.933 RPM ratio (pull-down/input) |
| GATGATTGTTCTCCCAGCTGATGAATTATCCTCGTCGAGTAAACAAATTTTCCTAATCTTTCTGTTCAAGCGCCATCTAC | 0.914 RPM ratio (pull-down/input) |
| GATGATTGTTCTCCCAGCTGATGAATTTAAGGAATCGAGTAAACAAATTTTCCTAATCTTTCTGTTCAAGCGCCATCTAC | 1.01 RPM ratio (pull-down/input) |
| GATGATTGTTCTCCCAGCTGATGAATTGAGTGGGTCGAGTAAACAAATTTTCCTAATCTTTCTGTTCAAGCGCCATCTAC | 0.807 RPM ratio (pull-down/input) |
| GATGATTGTTCTCCCAGCTGATGAATTCCGCGTGTCGAGTAAACAAATTTTCCTAATCTTTCTGTTCAAGCGCCATCTAC | 0.837 RPM ratio (pull-down/input) |
| GATGATTGTTCTCCCAGCTGATGAATTCACAGAGTCGAGTAAACAAATTTTCCTAATCTTTCTGTTCAAGCGCCATCTAC | 0.756 RPM ratio (pull-down/input) |
| GATGATTGTTCTCCCAGCTGATGAATTCGTACACTCGAGTAAACAAATTTTCCTAATCTTTCTGTTCAAGCGCCATCTAC | 1.01 RPM ratio (pull-down/input) |
| GATGATTGTTCTCCCAGCTGATGAATTATGAGATTCGAGTAAACAAATTTTCCTAATCTTTCTGTTCAAGCGCCATCTAC | 0.995 RPM ratio (pull-down/input) |
| GATGATTGTTCTCCCAGCTGATGAATTTGAAGTGTCGAGTAAACAAATTTTCCTAATCTTTCTGTTCAAGCGCCATCTAC | 0.887 RPM ratio (pull-down/input) |
| GATGATTGTTCTCCCAGCTGATGAATTCAGGTACTCGAGTAAACAAATTTTCCTAATCTTTCTGTTCAAGCGCCATCTAC | 0.846 RPM ratio (pull-down/input) |
| GATGATTGTTCTCCCAGCTGATGAATTTCAAGCGTCGAGTAAACAAATTTTCCTAATCTTTCTGTTCAAGCGCCATCTAC | 0.84 RPM ratio (pull-down/input) |
| GATGATTGTTCTCCCAGCTGATGAATTTCTAGTCTCGAGTAAACAAATTTTCCTAATCTTTCTGTTCAAGCGCCATCTAC | 0.822 RPM ratio (pull-down/input) |
| GATGATTGTTCTCCCAGCTGATGAATTGTTGTTTTCGAGTAAACAAATTTTCCTAATCTTTCTGTTCAAGCGCCATCTAC | 3.52 RPM ratio (pull-down/input) |
| GATGATTGTTCTCCCAGCTGATGAATTTCTAGGATCGAGTAAACAAATTTTCCTAATCTTTCTGTTCAAGCGCCATCTAC | 0.9 RPM ratio (pull-down/input) |
| GATGATTGTTCTCCCAGCTGATGAATTATTTGTATCGAGTAAACAAATTTTCCTAATCTTTCTGTTCAAGCGCCATCTAC | 2 RPM ratio (pull-down/input) |
| GATGATTGTTCTCCCAGCTGATGAATTGAGGAAATCGAGTAAACAAATTTTCCTAATCTTTCTGTTCAAGCGCCATCTAC | 0.939 RPM ratio (pull-down/input) |
| GATGATTGTTCTCCCAGCTGATGAATTTATAGATTCGAGTAAACAAATTTTCCTAATCTTTCTGTTCAAGCGCCATCTAC | 1.05 RPM ratio (pull-down/input) |
| GATGATTGTTCTCCCAGCTGATGAATTTCGTGGCTCGAGTAAACAAATTTTCCTAATCTTTCTGTTCAAGCGCCATCTAC | 0.824 RPM ratio (pull-down/input) |
| GATGATTGTTCTCCCAGCTGATGAATTAAGGAATTCGAGTAAACAAATTTTCCTAATCTTTCTGTTCAAGCGCCATCTAC | 0.933 RPM ratio (pull-down/input) |
| GATGATTGTTCTCCCAGCTGATGAATTTATACTGTCGAGTAAACAAATTTTCCTAATCTTTCTGTTCAAGCGCCATCTAC | 1.11 RPM ratio (pull-down/input) |

| Sequence | binding signal |
| --- | --- |
| GATGATTGTTCTCCCAGCTGATGAATTAGGGATTTCGAGTAAACAAATTTTCCTAATCTTTCTGTTCAAGCGCCATCTAC | 0.917 RPM ratio (pull-down/input) |
| GATGATTGTTCTCCCAGCTGATGAATTACCCCAATCGAGTAAACAAATTTTCCTAATCTTTCTGTTCAAGCGCCATCTAC | 1.04 RPM ratio (pull-down/input) |
| GATGATTGTTCTCCCAGCTGATGAATTCCTTACGTCGAGTAAACAAATTTTCCTAATCTTTCTGTTCAAGCGCCATCTAC | 0.852 RPM ratio (pull-down/input) |
| GATGATTGTTCTCCCAGCTGATGAATTTAACGTTTCGAGTAAACAAATTTTCCTAATCTTTCTGTTCAAGCGCCATCTAC | 0.884 RPM ratio (pull-down/input) |
| GATGATTGTTCTCCCAGCTGATGAATTTTGAGATTCGAGTAAACAAATTTTCCTAATCTTTCTGTTCAAGCGCCATCTAC | 0.971 RPM ratio (pull-down/input) |
| GATGATTGTTCTCCCAGCTGATGAATTACGGAGTTCGAGTAAACAAATTTTCCTAATCTTTCTGTTCAAGCGCCATCTAC | 0.941 RPM ratio (pull-down/input) |
| GATGATTGTTCTCCCAGCTGATGAATTCCCACACTCGAGTAAACAAATTTTCCTAATCTTTCTGTTCAAGCGCCATCTAC | 0.846 RPM ratio (pull-down/input) |
| GATGATTGTTCTCCCAGCTGATGAATTGTTGCTTTCGAGTAAACAAATTTTCCTAATCTTTCTGTTCAAGCGCCATCTAC | 2.12 RPM ratio (pull-down/input) |
| GATGATTGTTCTCCCAGCTGATGAATTGCAACTGTCGAGTAAACAAATTTTCCTAATCTTTCTGTTCAAGCGCCATCTAC | 1.44 RPM ratio (pull-down/input) |
| GATGATTGTTCTCCCAGCTGATGAATTTATTCCGTCGAGTAAACAAATTTTCCTAATCTTTCTGTTCAAGCGCCATCTAC | 1.11 RPM ratio (pull-down/input) |
| GATGATTGTTCTCCCAGCTGATGAATTAACCAAATCGAGTAAACAAATTTTCCTAATCTTTCTGTTCAAGCGCCATCTAC | 1.03 RPM ratio (pull-down/input) |
| GATGATTGTTCTCCCAGCTGATGAATTTAACATATCGAGTAAACAAATTTTCCTAATCTTTCTGTTCAAGCGCCATCTAC | 0.966 RPM ratio (pull-down/input) |
| GATGATTGTTCTCCCAGCTGATGAATTTTGCACCTCGAGTAAACAAATTTTCCTAATCTTTCTGTTCAAGCGCCATCTAC | 0.897 RPM ratio (pull-down/input) |
| GATGATTGTTCTCCCAGCTGATGAATTCCTTTTATCGAGTAAACAAATTTTCCTAATCTTTCTGTTCAAGCGCCATCTAC | 0.896 RPM ratio (pull-down/input) |
| GATGATTGTTCTCCCAGCTGATGAATTTACCCATTCGAGTAAACAAATTTTCCTAATCTTTCTGTTCAAGCGCCATCTAC | 1.16 RPM ratio (pull-down/input) |
| GATGATTGTTCTCCCAGCTGATGAATTTTGCGATTCGAGTAAACAAATTTTCCTAATCTTTCTGTTCAAGCGCCATCTAC | 0.992 RPM ratio (pull-down/input) |
| GATGATTGTTCTCCCAGCTGATGAATTACAACACTCGAGTAAACAAATTTTCCTAATCTTTCTGTTCAAGCGCCATCTAC | 1.55 RPM ratio (pull-down/input) |
| GATGATTGTTCTCCCAGCTGATGAATTTAAACCCTCGAGTAAACAAATTTTCCTAATCTTTCTGTTCAAGCGCCATCTAC | 0.825 RPM ratio (pull-down/input) |
| GATGATTGTTCTCCCAGCTGATGAATTTCAGTTTTCGAGTAAACAAATTTTCCTAATCTTTCTGTTCAAGCGCCATCTAC | 1.07 RPM ratio (pull-down/input) |
| GATGATTGTTCTCCCAGCTGATGAATTCCACCCGTCGAGTAAACAAATTTTCCTAATCTTTCTGTTCAAGCGCCATCTAC | 0.829 RPM ratio (pull-down/input) |
| GATGATTGTTCTCCCAGCTGATGAATTACTATCCTCGAGTAAACAAATTTTCCTAATCTTTCTGTTCAAGCGCCATCTAC | 0.923 RPM ratio (pull-down/input) |

| Sequence | binding signal |
| --- | --- |
| GATGATTGTTCTCCCAGCTGATGAATTTCCGAACTCGAGTAAACAAATTTTCCTAATCTTTCTGTTCAAGCGCCATCTAC | 0.879 RPM ratio (pull-down/input) |
| GATGATTGTTCTCCCAGCTGATGAATTTTCAATGTCGAGTAAACAAATTTTCCTAATCTTTCTGTTCAAGCGCCATCTAC | 0.925 RPM ratio (pull-down/input) |
| GATGATTGTTCTCCCAGCTGATGAATTCTTCTCTTCGAGTAAACAAATTTTCCTAATCTTTCTGTTCAAGCGCCATCTAC | 0.888 RPM ratio (pull-down/input) |
| GATGATTGTTCTCCCAGCTGATGAATTCAAGTGATCGAGTAAACAAATTTTCCTAATCTTTCTGTTCAAGCGCCATCTAC | 0.934 RPM ratio (pull-down/input) |
| GATGATTGTTCTCCCAGCTGATGAATTAGCGCATTCGAGTAAACAAATTTTCCTAATCTTTCTGTTCAAGCGCCATCTAC | 1.37 RPM ratio (pull-down/input) |
| GATGATTGTTCTCCCAGCTGATGAATTGTATTTGTCGAGTAAACAAATTTTCCTAATCTTTCTGTTCAAGCGCCATCTAC | 2.5 RPM ratio (pull-down/input) |
| GATGATTGTTCTCCCAGCTGATGAATTGGGGTGGTCGAGTAAACAAATTTTCCTAATCTTTCTGTTCAAGCGCCATCTAC | 0.85 RPM ratio (pull-down/input) |
| GATGATTGTTCTCCCAGCTGATGAATTCATGTATTCGAGTAAACAAATTTTCCTAATCTTTCTGTTCAAGCGCCATCTAC | 1.28 RPM ratio (pull-down/input) |
| GATGATTGTTCTCCCAGCTGATGAATTGACTGCTTCGAGTAAACAAATTTTCCTAATCTTTCTGTTCAAGCGCCATCTAC | 1.05 RPM ratio (pull-down/input) |
| GATGATTGTTCTCCCAGCTGATGAATTGTCAGACTCGAGTAAACAAATTTTCCTAATCTTTCTGTTCAAGCGCCATCTAC | 0.925 RPM ratio (pull-down/input) |
| GATGATTGTTCTCCCAGCTGATGAATTGTGTCGGTCGAGTAAACAAATTTTCCTAATCTTTCTGTTCAAGCGCCATCTAC | 0.976 RPM ratio (pull-down/input) |
| GATGATTGTTCTCCCAGCTGATGAATTCGGGTGGTCGAGTAAACAAATTTTCCTAATCTTTCTGTTCAAGCGCCATCTAC | 0.785 RPM ratio (pull-down/input) |
| GATGATTGTTCTCCCAGCTGATGAATTTTCGACTTCGAGTAAACAAATTTTCCTAATCTTTCTGTTCAAGCGCCATCTAC | 0.87 RPM ratio (pull-down/input) |
| GATGATTGTTCTCCCAGCTGATGAATTTCGCTGGTCGAGTAAACAAATTTTCCTAATCTTTCTGTTCAAGCGCCATCTAC | 0.825 RPM ratio (pull-down/input) |
| GATGATTGTTCTCCCAGCTGATGAATTTAGGGACTCGAGTAAACAAATTTTCCTAATCTTTCTGTTCAAGCGCCATCTAC | 0.828 RPM ratio (pull-down/input) |
| GATGATTGTTCTCCCAGCTGATGAATTTCTCCGGTCGAGTAAACAAATTTTCCTAATCTTTCTGTTCAAGCGCCATCTAC | 0.79 RPM ratio (pull-down/input) |
| GATGATTGTTCTCCCAGCTGATGAATTGAGGACGTCGAGTAAACAAATTTTCCTAATCTTTCTGTTCAAGCGCCATCTAC | 0.767 RPM ratio (pull-down/input) |
| GATGATTGTTCTCCCAGCTGATGAATTTACCCGCTCGAGTAAACAAATTTTCCTAATCTTTCTGTTCAAGCGCCATCTAC | 0.976 RPM ratio (pull-down/input) |
| GATGATTGTTCTCCCAGCTGATGAATTTCGAGGATCGAGTAAACAAATTTTCCTAATCTTTCTGTTCAAGCGCCATCTAC | 0.815 RPM ratio (pull-down/input) |
| GATGATTGTTCTCCCAGCTGATGAATTGACGATTTCGAGTAAACAAATTTTCCTAATCTTTCTGTTCAAGCGCCATCTAC | 1.11 RPM ratio (pull-down/input) |
| GATGATTGTTCTCCCAGCTGATGAATTACGGAAATCGAGTAAACAAATTTTCCTAATCTTTCTGTTCAAGCGCCATCTAC | 1.15 RPM ratio (pull-down/input) |
